Measurements as given in the supplement of paper PMC6531468.
Some of the results follow. Values come from read counts of a selection and are noisy. Scores sum up all selected molecules that hold the word; the word was not tested alone.

tested on: IMP3 RRM1-2; test: 6-mer SELEX enrichment z-score vs GST control; IMP3 is the RNA-binding protein IGF2BP3; higher = more enriched by binding; settings: construct: RRM1-2 (1-163); SELEX round: R2
Protocol: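 SELEX-seq with GST-tagged IMP3 RRM1-2 (Met1-Asn163) and an N40 RNA pool, round 2. 6-mer enrichment z-score normalised to GST SELEX. RNA written as DNA (T = U).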

Sequence of IMP3 RRM1-2 (chain, as listed by the source): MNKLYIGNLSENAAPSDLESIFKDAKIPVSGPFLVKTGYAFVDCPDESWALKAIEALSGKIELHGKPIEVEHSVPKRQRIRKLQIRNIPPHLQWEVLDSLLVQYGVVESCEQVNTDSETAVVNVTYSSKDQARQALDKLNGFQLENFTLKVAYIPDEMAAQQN

| Sequence | 6-mer SELEX enrichment z-score |
| --- | --- |
| TAATAG | -0.185 |
| GAATCA | 1.29 |
| CACCTA | -0.266 |
| AAGCCT | -0.774 |
| CCGACC | -1.15 |
| TTTGAG | 0.094 |
| CACTAA | 0.718 |
| CGTTAC | 0.151 |
| CCTCAC | 0.568 |
| ACCTTG | -0.295 |
| CCTCCC | -0.693 |
| CGTAGT | 0.175 |
| ATAGGC | 0.513 |
| TTTCGT | 0.401 |
| AGCTGG | 0.098 |
| TTCCTT | 0.365 |
| CATTCC | 1.01 |
| TAATGT | -0.166 |
| GCCAAA | -1.28 |
| GGGTTA | 0.254 |

| Sequence | 6-mer SELEX enrichment z-score |
| --- | --- |
| CGAATA | -1.16 |
| CTCTGC | 0.191 |
| AAGCGG | -0.607 |
| TTGCGC | 0.105 |
| CAGGAG | 0.185 |
| TAAAGA | -1.55 |
| AGGGAG | -0.276 |
| TGTGTC | 0.269 |
| CAAACT | -0.126 |
| AGCTCC | -0.19 |
| GGCAGT | 0.347 |
| AGTGAT | -0.316 |
| CATCCC | 0.009 |
| TATGCA | 0.21 |
| GGATTC | 0.069 |
| ATAACG | -0.636 |
| TCACTT | 1.15 |
| CGACAT | 0.17 |
| GCTTGC | 0.327 |
| AGTATT | 0.145 |
